Results published in US4343795A, “Biologically active amides” (priority 1977, dated 1982).
Counter-ions that a name gives are not always drawn. Part of at least one peptide drawing is inferred or uncertain, most often the ends. Starred links: 1 amine or outer side, 2 acyl side, 3 side chain; linkers in the order of their positions; H or OH if unused. Non-standard residues stand in square brackets, D forms with d. Residues, ends and D or L forms follow the SMILES beside them. *: point of attachment. Phe(4-NO2) = N[C@@H](Cc1ccc([N+](=O)[O-])cc1)C(=O)O; X2 = C[S+]([O-])c1ccc(C[C@H](N[*:1])C(=O)[*:2])cc1; X3 = CS(=O)(=O)c1ccc(C[C@H](N[*:1])C(=O)[*:2])cc1; Phe(4-CF3) = N[C@@H](Cc1ccc(C(F)(F)F)cc1)C(=O)O; X1 = CSc1ccc(C[C@H](N[*:1])C(=O)[*:2])cc1; Phe(4-Cl) = N[C@@H](Cc1ccc(Cl)cc1)C(=O)O; dMet(O) = CS(=O)CC[C@@H](N)C(=O)O; Prolinol = OC[C@@H]1CCCN1*; Pip = O=C(O)[C@@H]1CCCCN1

What was measured:
Format in all cases: in vivo
mice [1] = test: Analgesia in mice in the hot plate test; conditions: i.c.v.
Description: (A) Analgesia in mice in the hot plate test (modification of the method of Eddy, N. B. et al., J. Pharm. Exp. Therap. (1953) 107, 385, the peptide being administered by intracerebroventricular injection).
(§1) From the data obtained the respective ED50 figures were calculated (i.e. the dose required to elicit the appropriate effect in 50% of the animals). N.T.: not tested.

rat = test: Antidiarrhoeal activity in the rat (castor oil); conditions: for ANTIDARRHOEA ED50 p.o. / ANTIDARRHOEA ED50 s.c.: castor oil 15 minutes after peptide; for ANTIDARRHOEA s.c. (ED50 column): activity at 1: at 1 mg/kg s.c.; for ANTIDARRHOEA p.o. (ED50 column): activity at 10: at 10 mg/kg p.o.
Description: (B) Antidiarrhoeal activity in the rat. In this procedure rats were starved for 24 hours, the peptide then administered either subcutaneously or orally followed after 15 minutes by 1 ml. castor oil per rat given orally.
as §1

guinea-pigs = test: Anti-tussive testing, citric acid aerosol in guinea-pigs; conditions: guinea-pig
Description: J. Pharmacol., 39, (1970) 225.
(C) For anti-tussive testing, guinea-pigs are subjected to an aerosol containing 20% citric acid, 30 minutes after administration of compound (orally or subcutaneously). The number of coughs during a five minute exposure are counted and meaned for six animals per treatment. The method is that described by Boura, A. L. A., Green, A. F. and Saunders, I. A. Br. J. Pharmac., May 1970, Vol. 39, No. 1, page 225.
as §1

mice [2] = test: Analgesia in mice in the writhing test; conditions: mouse, p.o.
From the text: As a further example the compounds are effective in reducing acetic acid-induced writhing in mice when tested by a modification of the method of Henderson et. al., J. Pharm. Exp. Therap. 125 (1959), 237; the compounds being administered orally and this reduction in writhing is abolished by naloxone.
(D) Analgesia in mice in the writhing test (modification of the method of Henderson et. al. (J. Pharm. Exp. Therap., 125,(1959),237) the peptide being administered orally.
as §1

[3] = 20% citric acid aerosol 30 minutes after compound

Compound	ANALGESIA: MOUSE HOT PLATE ED50 (mice [1]) [μg/mouse]	ANTIDARRHOEA ED50 p.o. (rat) [mg/kg]	ANTIDARRHOEA ED50 s.c. (rat) [mg/kg]	ANTITUSSIVE ED50 p.o. (guinea-pigs; [3]) [mg/kg]	ANTITUSSIVE ED50 s.c. (guinea-pigs; s.c., 20% citric acid aerosol 30 minutes after compound) [mg/kg]	ANALGESIA: WRITHING ED50 (mice [2]) [mg/kg]	ANTITUSSIVE (ED50 column): activity at 3 p.o. (guinea-pigs; at 3 mg/kg p.o.)	ANTIDARRHOEA s.c. (ED50 column): activity at 1 (rat)	ANTIDARRHOEA p.o. (ED50 column): activity at 10 (rat)
C[S+]([O-])CC[C@@H](NC(=O)[C@@H](N)Cc1ccc(O)cc1)C(=O)NCC(=O)N[C@@H](Cc1ccc([N+](=O)[O-])cc1)C(=O)N1CCC[C@H]1C(N)=O (stereo partly drawn) [Example 2, H.Tyr.D-Met(O).Gly.Phe(4NO2).Pro.NH2] (H-Y[dMet(O)]G[Phe(4-NO2)]P-NH2)	0.005	0.05	0.02	0.7	0.02	2			
CSCC[C@@H](NC(=O)[C@@H](N)Cc1ccc(O)cc1)C(=O)NCC(=O)N[C@@H](Cc1ccc([N+](=O)[O-])cc1)C(=O)N1CCC[C@H]1CO [Example 5, H.Tyr.D-Met.Gly.Phe(4NO2).Pro.ol] (H-Y[dM]G[Phe(4-NO2)]-Prolinol)	0.05	0.3	0.03	> 10					
C[S+]([O-])CC[C@@H](NC(=O)[C@@H](N)Cc1ccc(O)cc1)C(=O)NCC(=O)N[C@@H](Cc1ccc([N+](=O)[O-])cc1)C(=O)N1CCC[C@H]1CO (stereo partly drawn) [Example 6, H.Tyr.D-Met(O).Gly.Phe(4NO2).Pro.ol] (H-Y[dMet(O)]G[Phe(4-NO2)]-Prolinol)	0.0007	0.2	0.05	9					
CSCC[C@@H](NC(=O)[C@@H](N)Cc1ccc(O)cc1)C(=O)NCC(=O)N[C@@H](Cc1ccccc1)C(=O)N[C@H](CC(C)C)C(=O)O [Example 8, H.Tyr.D-Met.Gly.Phe.D-Leu] (H-Y[dM]GF[dL]-OH)	0.07	> 10	5						
C[S+]([O-])CC[C@@H](NC(=O)[C@@H](N)Cc1ccc(O)cc1)C(=O)NCC(=O)N[C@@H](Cc1ccc(Cl)cc1)C(=O)N1CCC[C@H]1C(N)=O (stereo partly drawn) [Example 10, Tyr.D-Met(O).Gly.Phe(4Cl).Pro.NH2] (H-Y[dMet(O)]G[Phe(4-Cl)]P-NH2)	0.0008	1	0.02	> 10					
CC(C)C[C@@H](NC(=O)[C@H](Cc1ccccc1)NC(=O)CNC(=O)[C@@H](CC[S+](C)[O-])NC(=O)[C@@H](N)Cc1ccc(O)cc1)C(=O)O (stereo partly drawn) [Example 11, Tyr.D-Met(O).Gly.Phe.D-Leu] (H-Y[dMet(O)]GF[dL]-OH)	0.001	> 10	0.7						
CSCC[C@@H](NC(=O)[C@@H](N)Cc1ccc(O)cc1)C(=O)NCC(=O)N[C@@H](Cc1ccc([N+](=O)[O-])cc1)C(=O)N1CCCC[C@H]1C(N)=O [Example 12, Tyr.D-Met.Gly.Phe(4NO2).Pec.NH2.HCl] (H-Y[dM]G[Phe(4-NO2)][Pip]-NH2)	0.008	8	0.3						
CSCC[C@@H](NC(=O)[C@H](Cc1ccc([N+](=O)[O-])cc1)NC(=O)CNC(=O)[C@@H](CCSC)NC(=O)[C@@H](N)Cc1ccc(O)cc1)C(N)=O [Example 13, Tyr.D-Met.Gly.Phe(4NO2).D-Met.NH2.HOOCCH3] (H-Y[dM]G[Phe(4-NO2)][dM]-NH2)	0.005	> 10	1	> 10					
CSCC[C@@H](NC(=O)[C@@H](N)Cc1ccc(O)cc1)C(=O)NCC(=O)N[C@@H](Cc1ccc([N+](=O)[O-])cc1)C(=O)N1CCC[C@@H]1C(N)=O [Example 14, Tyr.D-Met.Gly.Phe(4NO2).D-Pro.NH2.HCl] (H-Y[dM]G[Phe(4-NO2)][dP]-NH2)	0.003	0.2	0.02	< 10					
C[S+]([O-])CC[C@@H](NC(=O)[C@@H](N)Cc1ccc(O)cc1)C(=O)NCC(=O)N[C@@H](Cc1ccc([N+](=O)[O-])cc1)C(=O)N1CCC[C@@H]1C(N)=O (stereo partly drawn) [Example 15, Tyr.D-Met(O).Gly.Phe(4NO2).D-Pro.NH2.HOOCCH3] (H-Y[dMet(O)]G[Phe(4-NO2)][dP]-NH2)	0.003	0.1	0.02	10		3			
C[S+]([O-])CC[C@@H](NC(=O)[C@@H](N)Cc1ccc(O)cc1)C(=O)NCC(=O)N[C@@H](Cc1ccc(C(F)(F)F)cc1)C(=O)N1CCC[C@H]1C(N)=O (stereo partly drawn) [Example 16, Tyr.D-Met(O).Gly.Phe(4CF3).Pro.NH2.HCl] (H-Y[dMet(O)]G[Phe(4-CF3)]P-NH2)	0.003	2	0.03				None		
CSCC[C@@H](NC(=O)[C@@H](N)Cc1ccc(O)cc1)C(=O)NCC(=O)N[C@@H](Cc1ccc(S(C)(=O)=O)cc1)C(=O)N1CCC[C@H]1C(N)=O [Example 17, Tyr.D-Met.Gly.Phe(4SO2 Me).Pro.NH2.HOOCCH3] (H-Y[dM]G[X3]P-NH2)	0.08							None	None
CSCC[C@@H](NC(=O)[C@@H](N)Cc1ccc(O)cc1)C(=O)NCC(=O)N[C@@H](Cc1ccc([S+](C)[O-])cc1)C(=O)N1CCC[C@H]1C(N)=O (stereo partly drawn) [Example 18, Tyr.D-Met.Gly.Phe(4SOMe).Pro.NH2.HOOCCH3] (H-Y[dM]G[X2]P-NH2)	0.03							None	None
CSCC[C@@H](NC(=O)[C@@H](N)Cc1ccc(O)cc1)C(=O)NCC(=O)N[C@@H](Cc1ccc(SC)cc1)C(=O)N1CCC[C@H]1C(N)=O [Example 19, Tyr.D-Met.Gly.Phe(4SMe).Pro.NH2.HOOCCH3] (H-Y[dM]G[X1]P-NH2)	0.8		8						None
CSCC[C@@H](NC(=O)[C@@H](N)Cc1ccc(O)cc1)C(=O)NCC(=O)N[C@@H](Cc1ccc(C(F)(F)F)cc1)C(=O)N1CCC[C@H]1C(N)=O [Example 20, Tyr.D-Met.Gly.Phe(4CF3).Pro.NH2 HCl] (H-Y[dM]G[Phe(4-CF3)]P-NH2)	0.07	8	0.1						
